# Test results from the supplement of paper PMC11417369.
# ± gives the standard deviation of the averaged measurements. This is one part of the list.
# Test system: PfAP2-EXP AP2 domain (GST-tagged)
# Assay: gcPBM binding intensity (ln(normalized median fluorescence intensity)); higher = stronger DNA binding
# Method in brief: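 Binding intensity values are the highest Masliner-normalised natural-log median intensity among replicate spots of either probe orientation. The binding step lasted 1 h in 1× PBS with 1% milk, 0.2 mg/ml BSA, 0.5% salmon testes DNA and 0.03% Triton X-100, using GST-tagged P. falciparum DNA-binding domains expressed in E. coli on an Agilent 4 × 180k array of primer-extended double-stranded 36-bp intergenic genomic probes plus negative controls. Alexa488 anti-GST antibody and a 488 nm scan detected bound protein.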
row,Sequence,gcPBM binding intensity (ln)
1,TAAATAAATATATGTACACACACAAATATATACATA [CACACA_site8577],8.26 ± 0.39
2,TATATGATATAATATACACACATACATATATATATA [CACACA_site8066],9.76 ± 0.33
3,ATTTTATGAAATGTTGCACACAAAAAACAACATGTT [CACACA_site8408],8.61 ± 0.35
4,ATGGGAAAAACATTCCGTACATACATACACATATAT [XGTACX_site8263],8.45 ± 0.38
5,ATATTTAATACAAATACACACACAAATATATACATA [CACACA_site9248],8.65 ± 0.54
6,CTGAATTTTTATAACTGTACATATTTGATATAAAAA [XGTACX_site183],8.42 ± 0.2
7,GAAATCTAATTTATTACACACATTTGAAAAAAATTC [CACACA_site6640],8.1 ± 0.42
8,TTACTAAGAAGGATTTATTTTATAAAAATATTTATT [XGTACX_negctrl_site549],7.95 ± 0.41
9,AATTTTTTGAATAATTGTACATATTTGGTTAAATAT [XGTACX_site3612],8.25 ± 0.37
10,ACCCATTTTTGTTGTTCTATATATTCGTGAATCATT [CACACA_negctrl_site614],8.88 ± 0.49
11,TTATATTTTTTTGAGTGTACTTTTTGTGTAAAATTC [XGTACX_site2155],8.51 ± 0.37
12,ATATTTTATACTTGCACACAAAATATATTAGAATGT [CACACA_site1985],8.51 ± 0.23
13,TACAGATAAATATACATACATATATATATATATATA [XGTACX_negctrl_site182],9.93 ± 0.56
14,ATATTATTTTATTTTTGTACAGATATCTTTAAAAAA [XGTACX_site3734],8.61 ± 0.4
15,CACGCGCACGAACACACACACACACGCATATAAATA [CACACA_site7103],8.71 ± 0.39
16,TTTTTTTTTTTTTTTGCACACTTAAATTTGGTGGGG [CACACA_site2344],8.96 ± 0.26
17,AATACATACATACATACATGCATATATATATATATA [TGCATGCA_site462],10.2 ± 0.14
18,AACATCATCTCTCCACAACAACAAAAAAAAAAATAC [CACACA_negctrl_site311],8.61 ± 0.49
19,TTATTAAAAATGGTATGTACGCACATAATATATATA [XGTACX_site3230],8.87 ± 0.24
20,TGTTTATGTTTACATGTGCGCATTACAGAAAAAAAA [GTGCAC_site9669],8.9 ± 0.28
21,TATTTTTATTGGTGAATACACACGTATATATATATT [CACACA_site2401],8.69 ± 0.39
22,ACATGTATACTTTTTACGAAAAAAAAAAAAAAAAAA [CACACA_negctrl_site1638],8.09 ± 0.45
23,TTTTTATTTAAAAGTAGTACAAGGGTTATTATTAAC [XGTACX_site1555],8.54 ± 0.37
